Source: PubChem BioAssay AID488969 (Vanderbilt High Throughput Screening Facility, 2010)
Values joined by “and” are separate entries in the source; they are usually repeats but may differ in a detail not shown here. Equal entries are not always repeated. Whole data set: some 110,000 compounds, median “z-score” near -0.1, cut for the highest 2% near 2. This is one part of the list. Active and inactive are the calls of the source.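 Rule for the calls: active = z-score in the third read window above 3 or below -3; inactive = the rest.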

Target: Metabotropic glutamate receptor 8 (Rattus norvegicus) (UniProt P70579)
Assay: rat mGluR8 modulators via GIRK flux, primary screen, cell-based, thallium flux, HTS (AID 488969)
Settings: HEK293 rat mGluR8, GIRK (G protein-gated inwardly rectifying potassium channel) thallium flux, FluoZin2; at 10 µM; stronger effect = higher value; submaximal glutamate (EC20) added with thallium

UniProt P70579, sequence (P70579 whole entry, looked up): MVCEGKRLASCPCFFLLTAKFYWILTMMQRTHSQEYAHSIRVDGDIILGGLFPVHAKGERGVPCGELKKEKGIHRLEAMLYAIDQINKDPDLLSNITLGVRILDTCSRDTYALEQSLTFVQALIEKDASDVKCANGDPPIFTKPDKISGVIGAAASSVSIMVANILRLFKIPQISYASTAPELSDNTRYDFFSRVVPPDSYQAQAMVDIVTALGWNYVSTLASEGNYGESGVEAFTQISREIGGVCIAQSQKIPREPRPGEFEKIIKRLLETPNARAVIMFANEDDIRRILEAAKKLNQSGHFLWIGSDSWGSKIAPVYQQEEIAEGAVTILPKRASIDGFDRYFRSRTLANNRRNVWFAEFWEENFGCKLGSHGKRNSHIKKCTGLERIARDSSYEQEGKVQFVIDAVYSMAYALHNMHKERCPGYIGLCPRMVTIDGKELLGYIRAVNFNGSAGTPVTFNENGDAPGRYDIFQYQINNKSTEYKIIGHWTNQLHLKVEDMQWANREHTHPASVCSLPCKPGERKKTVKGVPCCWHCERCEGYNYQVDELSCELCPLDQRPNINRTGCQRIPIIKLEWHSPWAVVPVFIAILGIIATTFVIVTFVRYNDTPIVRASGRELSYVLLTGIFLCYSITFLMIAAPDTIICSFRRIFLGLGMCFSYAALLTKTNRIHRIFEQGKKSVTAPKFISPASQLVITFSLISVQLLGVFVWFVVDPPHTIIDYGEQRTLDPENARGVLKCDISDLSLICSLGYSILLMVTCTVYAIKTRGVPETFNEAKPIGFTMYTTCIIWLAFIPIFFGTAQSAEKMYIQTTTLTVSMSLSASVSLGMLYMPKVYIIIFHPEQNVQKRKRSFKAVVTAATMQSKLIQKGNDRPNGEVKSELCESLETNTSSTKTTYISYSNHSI

SMILES	z-score
CCOC(=O)c1sc(=S)n(-c2ccccc2)c1SC	-0.103
CC1(C)CC(=O)C([N+](=O)[O-])=C(NCCCO)C1	0.365
CCc1cc(C(=O)Cc2ccc(F)cc2)c(O)cc1O	-0.133
Cc1ccnc2nc(C(=O)Nc3nccs3)nn12	0.755
CCOc1ccc(C(=O)c2cc([N+](=O)[O-])ccc2Cl)cc1	-0.0524
CCS(=O)(=O)N1Cc2ccccc2CC1C(=O)Nc1nccs1 (centres undefined)	0.904
Cc1ccc(S(=O)(=O)N2CCC(C(=O)N3Cc4ccccc4C3)CC2)cc1	0.318
COCCNC(=O)c1cc2oc3ccccc3c2n1C	0.0795
COc1cccc(-c2csc(N3CCN(C(=S)Nc4ccccc4OC)CC3)n2)c1	-0.186
COCCNC(=O)Cn1cc2c(n1)CCC(C)C2 (centres undefined)	-0.03
O=C(CC1COc2ccccc2O1)NCCc1ccccc1 (centres undefined)	-0.0967
C=CCN1C(c2ccccc2)=CS/C1=C(/C#N)c1nnc(N2CCOCC2)n1-c1ccccc1	-0.29
CSCCC(NC(=O)c1cncc(Br)c1)C(=O)O (centres undefined)	0.306
CCC(=O)N1CCN(c2ccc(Cl)cc2NC(=O)c2ccc(Br)o2)CC1	0.00401
CC(=O)NC1(c2ccccc2)CCN(C(=O)N2CCOCC2)CC1	1.61
CCN1CCN(C(=O)c2cc3nc(-c4ccccc4)cc(C(F)(F)F)n3n2)CC1	0.0572
O=C(NCc1ccc(F)cc1)c1ccc(CS(=O)(=O)Cc2ccc(F)cc2)o1	-0.313
Cc1ccc(NC(=O)COC(=O)CCC(=O)c2cccs2)cc1S(=O)(=O)N1CCOCC1	-0.276
CC(=O)c1nc(N2C(=O)CC(Cc3ccc(C)cc3)C2=O)sc1C (centres undefined)	-0.714
COc1ccc(C(C)=O)cc1CSc1nnc(-c2ccc(Cl)cc2)n1-c1ccccc1	-0.682
Cc1cc(NC(=O)c2noc3c2CCCC3)nn1Cc1ccc(Cl)cc1	0.522
C=CCn1c(O)c(C=Nc2ccc(Cc3ccncc3)cc2)c(=O)[nH]c1=S	-0.0822

SMILES	z-score
CN(C)c1ncc(S(=O)(=O)c2ccccc2)c(-c2ccc(Cl)cc2Cl)n1	-0.073
CCOc1ccc2nc(Cl)c(C3CC(c4ccccc4)=NN3C(=O)c3cccs3)cc2c1 (centres undefined)	-0.13
COC(=O)c1ccc(C2c3c(oc4ccccc4c3=O)C(=O)N2CCCN2CCOCC2)cc1 (centres undefined)	0.249
COc1ccc2c(c1)Cc1sc(NC(C)=O)nc1-2	-0.0354
CCOC(=O)c1ccc(N=c2sc(C(=O)OC)cc(=O)n2CCCN2CCOCC2)cc1	0.736
O=C(/C=C/c1ccc(S(=O)(=O)NCc2ccco2)cc1)NCc1ccccc1Cl	0.0386
CCc1ccc2[nH]c(=O)c(CN(Cc3ccc4c(c3)OCO4)Cc3nnnn3C3CCCC3)cc2c1	-0.918
O=C(NC1CCCC1)C(c1cccnc1)N(C(=O)c1csnn1)C1CCCC1 (centres undefined)	-0.145
CN(C)S(=O)(=O)c1ccc(Cl)c(NC(=O)CSc2nc3ccccc3c(=O)n2CCCN2CCOCC2)c1	-0.013
COc1ccc(C2=C(N)c3ccccc3C2=O)cc1	0.623
COc1cccc(-c2nnc(NC(=O)Cc3cccs3)s2)c1	-0.044
Cc1nn(-c2ccc(C(=O)O)cc2)c(=O)c2ccccc12	0.142
O=[N+]([O-])c1ccc(N2CCN(c3ccc(Cl)nn3)CC2)c(Cl)c1	0.0522
COc1cccc(C2C3=C(Nc4[nH]n(-c5ccccc5)c(=O)c42)c2ccccc2C3=O)c1 (centres undefined)	-0.169
COc1ccc(S(=O)(=O)N(C)CC(=O)Nc2ccc(F)cc2)cc1	0.402
O=C(O)Cc1ccc(C(=O)c2ccccc2F)s1	0.48
COC(=O)C12CC3CC(C1)CC(n1cnc(Cl)n1)(C3)C2	0.327
CCCOc1ccc(S(=O)(=O)NNC(=O)c2cc3ccccc3o2)cc1	-0.117
CCCNC(=O)C(Sc1ccccc1)c1ccccc1 (centres undefined)	-0.184
CCN1CCN(CCCNC(=O)c2cc3sccc3n2CC)CC1	-0.406
CCOC(=O)c1ccc(NC(=O)C(C)N2C(=O)c3ccccc3C2=O)cc1 (centres undefined)	0.0109
COc1cc2cc(C(=O)Nc3ccccc3)c(N)nc2cc1OC	-1.08

SMILES	z-score
COC(=O)c1cc(=O)n(CCc2ccc(OC)cc2)c(=Nc2ccc(F)c(Cl)c2)s1	active: 9.49
Cc1cccc(C(=O)Nc2sc3c(c2C#N)CCCCC3)c1	-0.209
Cc1c(C)c2ccc(OS(C)(=O)=O)cc2oc1=O	-0.191
Cc1ccc(C)c(NC(=S)NC(NC(=O)N(C)C)C(Cl)(Cl)Cl)c1 (centres undefined)	0.00458
COC(=O)CN(c1ccc2c(c1)OCO2)S(C)(=O)=O	0.0344
CCCCOC(=O)CSC1=C(C#N)C(c2ccccc2OC)C(C#N)C(=O)N1 (centres undefined)	-1.3
Cc1ccc2[nH]c(=O)c(NC(N)=S)nc2c1	0.252
Cc1cccc(NC(=S)/N=C(\N)Nc2nc(C)c3ccccc3n2)c1	-0.173
O=C(Nc1cnc2ccccc2c1)c1cccnc1	0.599
CC(=O)Nc1ccc(S(=O)(=O)Oc2ccc(C=O)cc2)cc1	-0.417
COc1ccc(OCC(=O)NNC(=O)c2cccc(S(=O)(=O)N(C)C)c2)cc1	0.309
CCOC(=O)c1c(C)[nH]c(C(=O)COC(=O)c2ccccc2NC(=O)c2ccco2)c1C	-0.00749
Cc1ccc(C2C(C(=O)c3ccco3)=C(O)C(=O)N2c2nnc(C)s2)cc1 (centres undefined)	-0.959
Cn1c(C(=O)NCCc2c[nH]c3ccccc23)cc2sccc21	-0.444
CC1=C(C(=O)OCc2ccccc2)C(c2ccsc2)C(C#N)=C(N)O1 (centres undefined)	0.0631
CCOC(=O)c1cnc2c(-c3ccccc3)c(C)nn2c1N	0.423
COc1ccc(-c2coc3cc4oc(=O)cc(C)c4cc23)cc1F	-0.258
COc1ccc2nc(C)cc(SCC(=O)O)c2c1	-0.0738 and -0.321
COc1ccc(C(=O)c2oc3ccccc3c2N)cc1	-0.229
COc1cccc(NC(=O)NCc2cccn2C)c1	0.0848
Cc1noc(C)c1CN(C(=S)NC1CC1)c1ccccc1	-0.228
Cc1ccccc1NC(=O)/C(=C/c1ccco1)c1ccccc1	1.54

SMILES	z-score
O=C(Nc1ccsc1C(=O)NC1CC1)c1ccccc1	-0.678
CC1(C)SCC(C(=O)O)N1C=O (centres undefined)	-0.0525
O=C(Nc1ccccc1C(=O)N1CCOCC1)c1ccncc1	0.643
O=C(Nc1cccc(C(=O)N2CCOCC2)c1)NC1CCCCC1	0.761
O=S(=O)(c1cccc(C(F)(F)F)c1)N1CCN(C(=S)NCc2ccco2)CC1	-0.269
CCC(C)(C)c1ccc(Oc2ccc(NC(=O)COC(=O)C3=COCCO3)cc2)cc1	-0.0127
CCCOC(=O)CN1C(=O)c2ccccc2C1=O	-0.291
CCOc1cccc(C2C(C(=O)c3ccc(C)o3)=C(O)C(=O)N2Cc2ccncc2)c1 (centres undefined)	-1.1
COc1ccc(/C=N/Nc2nc3ccccc3c(=O)[nH]2)cc1	-0.215
CCOC(=O)CN1C(=O)C(O)(CC(=O)c2ccco2)c2ccccc21 (centres undefined)	0.408
O=C(NC1CCCCC1)C(c1ccc(F)cc1)N(CCc1ccccc1)C(=O)CN1C(=O)c2ccccc2S1(=O)=O (centres undefined)	-0.267
CCCCN(C(=O)CSc1nnc(-c2ccccc2OC)n1C)c1c(N)n(Cc2ccccc2)c(=O)[nH]c1=O	-0.25
CCCCn1c(Cc2ccccc2)nnc1SCC(=O)N1CCOCC1	-0.257
O=C(NCc1ccco1)c1cc2ccccc2o1	-0.0182
COC(=O)c1ccc(COC(=O)c2ccc(CS(=O)(=O)c3ccc(C)cc3)cc2)cc1	-0.331
COc1ccc(CNC(=O)CCSc2nc(-c3ccc4c(c3)OCO4)cc(C(F)(F)F)n2)cc1	-0.113
Cc1nonc1OCCNC(=O)C12CC3CC(CC(C3)C1)C2	0.229
Cc1ccc(N2C(=O)[C@@H]3Cc4ccccc4CN3C2=O)cc1	0.799
CC(C)C(NC(=O)c1ccc(C(C)(C)C)cc1)C(=O)O (centres undefined)	-0.0228
Cc1ccc(C(=O)NC(=S)Nc2ccc3[nH]c(=O)[nH]c3c2)cc1C	0.0514
CN(C)c1ccc(CNc2ccc3c(c2)ncn3C)cc1	0.00566
CCCCOc1ccc(C(=O)N/C(=C\c2ccc(OC)cc2)C(=O)OCc2ccco2)cc1	0.333

SMILES	z-score
CCCCC(=O)Nc1cc(N(C)C)nc2ccccc12	-0.432
O=C(c1ccc(F)cc1)C(CCCCCC(CN1CCOCC1)C(=O)c1ccc(F)cc1)CN1CCOCC1 (centres undefined)	1.92
Cc1ccc(SCC(=O)NC(=O)Nc2ccc3c(c2)OCCO3)cc1C	-0.0622
O=S(=O)(NC1CCCCC1NS(=O)(=O)c1ccc(F)cc1)c1ccc(F)cc1 (centres undefined)	-0.667
CCN(CC)S(=O)(=O)c1cc(C(=O)Nc2ccccc2[N+](=O)[O-])ccc1Cl	-0.134
Cc1ccc(N=Cc2ccc[nH]2)c(O)c1	-0.0743
Cc1nc(=O)c(-c2ccccc2)c(C)n1CCCCCC(=O)O	-0.133
CCOC(=O)CSc1nnc(CSc2nc(N)c3c(C)c(C)sc3n2)n1-c1ccccc1	-0.194
Oc1ccc(Cl)cc1CNCC1CCCO1 (centres undefined)	-1.24
COc1c2ccc(C(=O)NCCCCc3ccccc3)cc2nn1C	0.0978
CC(CCc1ccccc1)NC(=O)Cc1ccc([N+](=O)[O-])cc1 (centres undefined)	-1.51
CCOC(=O)c1sc(NC(=O)CN2C(=O)NC3(CC(C)CC(C)(C)C3)C2=O)c(C(=O)OCC)c1C (centres undefined)	-0.126
COc1ccc(N2CCN(/C(=N\S(=O)(=O)c3ccc(C)cc3)Nc3nc(C)cc(C)n3)CC2)cc1	-0.421
O=C(Cn1c(C(F)(F)F)nc2ccccc21)OCC(=O)c1c[nH]c2ccccc12	-0.594
Cn1c(=O)c(C(=O)c2ccccc2)nc2ccccc21	0.00614
Cn1c(SCc2nc(-c3ccccc3)no2)nnc1-c1cccs1	-0.0325
COc1ccc(N(CC(=O)NCc2ccc3c(c2)OCO3)S(C)(=O)=O)cc1OC	-0.87
O=C(NCCc1ccccc1)c1cccnc1N1CCCCCC1	-0.918
CCCCNc1cc(C)nc(N2CCOCC2)n1	-0.087
CCc1cc2c(=O)n(CC)c(SC(C)C(=O)Nc3c(C)n(C)n(-c4ccccc4)c3=O)nc2s1 (centres undefined)	active: -3.33
CCCC(=O)Nc1nc2ccc(NC(=O)c3ccc(Br)o3)cc2s1	-1.05
